Measurements taken from the BET-seq Pho4 binding data (Le et al. 2018).
The list shows a part of the results. Values were computed here from the reads of four pooled replicates and scatter widely.

Target: T1, Pho4 (S. cerevisiae) (UniProt P07270)
T1 sequence: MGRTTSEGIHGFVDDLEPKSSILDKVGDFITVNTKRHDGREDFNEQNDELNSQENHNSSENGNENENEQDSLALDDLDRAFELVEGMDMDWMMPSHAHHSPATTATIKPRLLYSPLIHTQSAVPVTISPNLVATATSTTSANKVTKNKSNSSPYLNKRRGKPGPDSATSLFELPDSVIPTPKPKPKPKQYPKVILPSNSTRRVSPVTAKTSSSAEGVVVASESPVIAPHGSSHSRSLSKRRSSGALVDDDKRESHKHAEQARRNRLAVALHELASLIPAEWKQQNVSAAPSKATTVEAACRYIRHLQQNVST
Experiment: relative binding free energy (BET-seq); higher = weaker binding
Conditions: reference: library average

Sequence	relative binding free energy [kcal/mol]
GTACGCACGTGTTAGT	-0.07
GACGTCACGTGGTTGA	0.15
GAGTCCACGTGTGTTA	0.22
TGTTACACGTGAGTGG	0.27
TGCGTCACGTGGCGGG	-0.07
TTTTGCACGTGTTTCC	0.04
TAAGGCACGTGAAGGT	0.24
GTGTACACGTGATGGA	0.27
TTGTACACGTGCGTCG	-0.06
AAGGGCACGTGGTGAC	-0.19
GTCTTCACGTGTGTAG	0.3
ATTTGCACGTGCGTAT	-0.04
TTAAACACGTGATGGC	0.25
TTGATCACGTGCTTGG	-0.01
GGGGGCACGTGTCAAA	0.05
GTCATCACGTGGGATG	0.12
GTTAACACGTGGCTGG	0.07
GTGTGCACGTGGATAA	0.05
AGGTACACGTGATTTT	0.23
GCAGGCACGTGTATGG	-0.07
AAGGGCACGTGGGGCG	-0.27
TTCGGCACGTGAAATT	0.17
GAAGTCACGTGGGTGA	0.03
AATATCACGTGGGGCG	-0.07
GTATACACGTGTTGTG	-0.04

Sequence	relative binding free energy [kcal/mol]
GTGCGCACGTGCGTGA	-0.2
GGTAGCACGTGAGAAT	0.24
TTTGGCACGTGTAGAT	0.12
TTTGACACGTGATGCT	0.18
CGTGTCACGTGTGGGG	0.06
GGTTGCACGTGGGATC	0.01
GGGCGCACGTGTGTTC	-0.07
GCTTTCACGTGGAATG	0.35
TTTTACACGTGTTTGA	0.05
CGAAGCACGTGGTGAG	-0.05
CTTATCACGTGAGGGA	0.39
CGTTGCACGTGTGCTG	-0.04
TGTTACACGTGGGATC	0.06
TGGGACACGTGAGGAC	0.2
GCTTTCACGTGGGGAG	0.26
CGAGTCACGTGTGGAT	0.08
TGAAGCACGTGGGCGA	-0.18
GGGCCCACGTGGGTGA	-0.13
GACAGCACGTGGGGGG	-0.11
GTAATCACGTGATGGA	0.25
CTGTGCACGTGTTTTT	0.04
TTTTTCACGTGGTAGT	0.38
AGAGGCACGTGTAGGT	-0.17
TGGAGCACGTGTCGTA	-0.1
GGAGACACGTGGCGGC	0.05

Sequence	relative binding free energy [kcal/mol]
GTATTCACGTGGGGTG	0.15
GTTGTCACGTGAAGTC	0.34
CGGGGCACGTGTGGTT	0.04
CGGTCCACGTGTATGT	0
AGGTGCACGTGCCTTG	-0.1
TGATACACGTGGGTTT	0.07
CGGTGCACGTGTTGCT	-0.09
AGTATCACGTGAATTT	0.27
TCGCGCACGTGGTGTG	-0.24
GTATTCACGTGGTAAG	0.28
GTTATCACGTGATGTT	0.38
AAATTCACGTGGTGAT	0.25
TTTCTCACGTGGTTTT	0.3
GCGGGCACGTGAAGTG	0.18
GGTCTCACGTGGTGGA	0.23
TTCGTCACGTGTTGGC	0.11
GTATTCACGTGAATGG	0.32
GGTCACACGTGGCGTG	0
GGCATCACGTGCGGTA	0.27
CTTGCCACGTGGTGTG	-0.29
GGGATCACGTGGGTGC	0.04
ATAGGCACGTGTCTGG	-0.26
CCTGGCACGTGTTATT	0.06
TGGAGCACGTGGAGCG	-0.04
TGGAGCACGTGACTGA	0.13

Sequence	relative binding free energy [kcal/mol]
GGCGACACGTGGAGAG	0.06
GTTAGCACGTGCTTTT	-0.02
TTGGACACGTGGGCTT	0.02
CGGTGCACGTGAGTTG	0.15
TGGGGCACGTGAGGAT	0.18
AAATACACGTGGGTGC	0.01
TTGTACACGTGGCATT	-0.05
GATTACACGTGTGCTG	0.22
GGGTTCACGTGGCTTT	0.2
AGGTTCACGTGGTCAT	0.29
TGATGCACGTGGGGAG	-0.16
GTAGCCACGTGAAGTT	0.27
GGTACCACGTGTGTGG	-0.07
AGGGACACGTGGTGCG	-0.04
GTTGTCACGTGGTGTT	0.09
AGGTGCACGTGTTTCG	-0.1
CTTATCACGTGTCTGT	0.05
AAGAACACGTGTGGGT	0.06
TGGGACACGTGAGGAT	0.3
TGCGACACGTGAGAGG	0.28
AGTTGCACGTGCGGTT	-0.04
CGCGTCACGTGGTGGG	0.02
GAGGTCACGTGAGCTG	0.29
GGAGACACGTGGCGTG	-0.02
TAGTACACGTGATGCG	0.09

Sequence	relative binding free energy [kcal/mol]
CAGTGCACGTGATGAT	0.1
AACGTCACGTGTGTTG	0.17
GTATACACGTGTGGAA	0.24
ATACGCACGTGTAGTT	-0.08
TGGTACACGTGAGAAT	0.29
GTTATCACGTGGTCTG	0.14
TAGCCCACGTGTTTGG	-0.06
AAGGGCACGTGAGGAC	0.12
TGGGTCACGTGCAGGA	-0.07
ACAGTCACGTGGTGGG	0.02
CGATGCACGTGTATGG	0.08
GTTGGCACGTGGCCAG	-0.26
GGTATCACGTGAGTAG	0.26
GTATACACGTGACTGT	0.29
AGAGTCACGTGGTCTG	-0.13
TATGTCACGTGCGATA	0.28
CTTGTCACGTGTGATG	0.18
AGATGCACGTGGTAAG	-0.09
TAGTTCACGTGCCTGG	0.14
TGTGACACGTGCTCGG	-0.05
TTGATCACGTGGTATG	0.13
CGGATCACGTGGAAGT	0.28
TGGTTCACGTGATATT	0.3
CGTTCCACGTGGTGTG	-0.18
ACGGGCACGTGATTGT	-0.04

Sequence	relative binding free energy [kcal/mol]
TACTGCACGTGAGTGG	0.13
GAGTGCACGTGTCATG	0.01
AGGATCACGTGGAATA	0.32
AGTTGCACGTGCAAGA	0.19
TCTAGCACGTGTTTAT	0.01
AAGGGCACGTGCTAGG	-0.2
TTCGTCACGTGTTTAA	0.1
TTGGGCACGTGGCCAG	-0.21
GGGGTCACGTGCGACG	0.13
ATAGCCACGTGGGGGT	-0.36
GGTGACACGTGAGTGT	0.28
GTTGTCACGTGTAACT	0.35
AAGTTCACGTGCGGAG	0.24
AAGATCACGTGAGGGG	0.12
TCGGTCACGTGGGGTT	-0.06
TGGATCACGTGGTTTA	0.11
ATGGTCACGTGGCTCA	0.14
TGATGCACGTGTCGGG	0.05
TTTCGCACGTGAGTGA	0.19
CTTGGCACGTGGAGTG	-0.13
AAGATCACGTGGGCGG	-0.07
